As usually defined, the % Inhibition is the relative decrease from the control value, in per cent.

Here are results for 55 compounds from ChEMBL document CHEMBL4888484, “Replenishing the malaria drug discovery pipeline: Screening and hit evaluation of the MMV Hit Generation Library 1 (HGL1) against asexual blood stage Plasmodium falciparum ,using a nano luciferase reporter read-out” (2022).

Each structure is given as a SMILES string. The whole screen tested about 150,000 compounds, of which about 540 (0.36%) showed an effect of 50% or more. The list shows a part of the results.

This experiment concerns Plasmodium falciparum. The experiment in a line: Primary screen in NF54 nanoGlo assay, in single point, at 2uM, 72h; a lower Z score goes with more inhibition. The class given is functional, Erythrocyte. The note with it: timepoint 72 hour.
Take `COc1ccc(CN(C(=O)[C@H]2CCOC2)C(C)(C)C)c(OC)c1`: the “% Inhibition” value is -8% and the Z score is 1.5.

Turning to `Cc1[nH]c(=O)[nH]c(=O)c1S(=O)(=O)N1CCC(C(=O)NCCN2CCN(c3ccccc3)CC2)CC1`, the “% Inhibition” value is recorded as -13% and the Z score is 2.

For the compound `O=C(NCCc1ccc(Cl)cc1)c1csc(C(=O)NC2CC2)n1`, the “% Inhibition” value is listed as -10% and the Z score came out at 1.55.

In the case of `N#Cc1cc(C(=O)NS(=O)(=O)N2CCOCC2)ccc1N1CCCC1`, the “% Inhibition” value was -5% and the Z score came out at 0.63.

Consider `Cc1ccccc1C(=N)Nc1nnn[nH]1`, for which the “% Inhibition” value is -7% and the Z score was found to be 0.76.

Take `CCN(c1cccc(Br)c1)S(C)(=O)=O`: the “% Inhibition” value is 1% and the Z score was -0.13.

Consider `O=C(NCc1cncc(-c2ccoc2)c1)[C@@H]1CCCO1`, for which the “% Inhibition” value is on record as 10% and the Z score is -1.23.

On to `O=C(NCCN1C(=O)COC1=O)c1ccc(F)cc1`, for which the “% Inhibition” value was determined as 17% and the Z score was -2.27.

`O=C1N(Cc2ccc(F)c(F)c2)CCC[C@@]1(O)CNC1CCC1`: the “% Inhibition” value is reported as -8% and the Z score is 1.2.

With `OC[C@@]1(Cc2ccc(F)cc2)CCN(c2cc(OCC3CC3)ccn2)C1`, the “% Inhibition” value is -12% and the Z score amounted to 2.19.

Take `CCc1ncc(NC(=O)N(CCN(C)C)C(C)C)cn1`: the “% Inhibition” value is on record as -12% and the Z score amounted to 1.18.

Turning to `COc1ccccc1N1CCN(C(=O)c2nnn(-c3ccccc3Cl)c2-c2cccnc2)CC1`, the “% Inhibition” value amounted to 50% and the Z score is recorded as -6.51.

Regarding `Cc1cnn(C[C@H]2CCCN2c2ncccc2C#N)c1`, the “% Inhibition” value is on record as 12% and the Z score is on record as -1.58.

On to `Cc1nscc1C(=O)N[C@@H](CC(=O)O)Cc1cc(F)c(F)cc1F`, for which the “% Inhibition” value is 1% and the Z score is given as -0.22.

Turning to `CC(=O)Nc1c(-c2ccccn2)nsc1C(=O)NC1CCCCC1`, the “% Inhibition” value is recorded as -1% and the Z score is recorded as 0.12.

Regarding `COCC1(CNCc2ccc(C(=O)O)cc2)CCC1`, the “% Inhibition” value was -11% and the Z score is 2.29.

For `Cc1ccc(NC(=O)c2cn(-c3cc(-c4noc(C5CC5)n4)ccc3C)nc2C)cc1C`, the “% Inhibition” value is on record as -18% and the Z score is recorded as 2.13.

Consider `Cn1c(=O)[nH]c(=O)c2cc(S(=O)(=O)N3CCCCC3)cnc21`, for which the “% Inhibition” value was -6% and the Z score was 1.12.

Take `Cc1cccc(C(=O)NCCc2nnc3n2CCCC3)c1`: the “% Inhibition” value is reported as -13% and the Z score is on record as 1.8.

For the compound `Cc1nc(C)c(F)c(N[C@H]2CCCNC2=O)n1`, the “% Inhibition” value is reported as 5% and the Z score is -0.81.

Turning to `Cc1cc(-c2c(-c3ccccc3)ncn2Cc2cccnc2)oc1C`, the “% Inhibition” value is 9% and the Z score is recorded as -1.83.

As for `Cn1cc(C(=O)OCCc2ccc(F)cc2F)cn1`, the “% Inhibition” value is on record as -13% and the Z score turned out to be 1.37.

Take `CN(C)c1cncc(C(=O)NS(=O)(=O)C2C[C@@H]3CC[C@H]2C3)c1` (stereo not given in full): the “% Inhibition” value is recorded as 1% and the Z score was -0.17.

Consider `CC1CCN(C[C@@H](O)CNc2cc(C#N)ccn2)CC1`, for which the “% Inhibition” value was -2% and the Z score is 0.45.

As for `COc1ccc(C)cc1N(C)C(=O)Cn1ccc2c(=O)n(C)c(=O)n(C)c21`, the “% Inhibition” value is on record as -11% and the Z score is on record as 1.08.

In the case of `CCCc1cc(C(=O)N(CC(=O)O)C2CCCCCC2)n(C)n1`, the “% Inhibition” value was -14% and the Z score stood at 1.39.

As to `Cc1ccc(S(=O)(=O)N(C)c2cncc(C(=O)N[C@@H](C)CCc3ccccc3)c2)cc1`, the “% Inhibition” value is -13% and the Z score stood at 2.36.

`CCn1cc(CC(=O)OC[C@H]2COC(C)(C)O2)c2ccccc21`: the “% Inhibition” value is listed as -12% and the Z score is recorded as 1.01.

On to `O=C(NCC1(NC(=O)C2=CCCC2)CCOCC1)C1=CCCC1`, for which the “% Inhibition” value is reported as -17% and the Z score amounted to 1.97.

In the case of `CCc1oc(C(=O)N2CC[S@+]([O-])C(C)(C)C2)cc1C`, the “% Inhibition” value was -8% and the Z score was 1.07.

Take `Cc1ccc(NC(=O)c2ncoc2C(C)C)c(CN(C)C)c1`: the “% Inhibition” value is -2% and the Z score came to 0.34.

In the case of `CC1(C)CN(S(=O)(=O)c2cncc(F)c2)[C@@H]1c1cccs1`, the “% Inhibition” value was -7% and the Z score is 0.7.

Take `Cc1csc[n+]1CC(=O)c1ccc(C(F)(F)F)cc1`: the “% Inhibition” value is on record as 29% and the Z score is -3.29.

`NC(=O)c1ccc(CNC(=O)C2CCCCCC2)o1`: the “% Inhibition” value is recorded as -4% and the Z score turned out to be 0.36.

On to `Cc1ccc(NC(=O)Cc2nnc(-c3cnccn3)o2)c(Cl)c1`, for which the “% Inhibition” value was -12% and the Z score was 1.25.

Turning to `CO[C@@H](CNc1nc(C)cc(C#N)n1)C(C)(C)C`, the “% Inhibition” value is recorded as -16% and the Z score is 2.1.

`CC(C)Cc1ncc(NC(=O)N[C@@H]2CCCc3cccnc32)cn1`: the “% Inhibition” value is reported as -8% and the Z score amounted to 0.87.

As to `COc1cc(-c2nccn2[C@H]2CCCN(c3ncccn3)C2)cc2c1OCO2`, the “% Inhibition” value was -19% and the Z score was 2.1.

As to `CC(OCC(F)(F)F)C(=O)Nc1ccc(N(C)C(=O)C(C)OCC(F)(F)F)nc1` (stereo not given), the “% Inhibition” value was -8% and the Z score is 0.77.

In the case of `O=S1(=O)CC=C(CNCc2ccccc2)C1`, the “% Inhibition” value was -18% and the Z score was 2.87.

On to `O=C(NCC1CC1)C1(NCc2ccc3cn[nH]c3c2)CCCC1`, for which the “% Inhibition” value is on record as -7% and the Z score was determined as 0.93.

As to `Cc1csc(CNC(=O)[C@@H](C)C2CCOCC2)n1`, the “% Inhibition” value was -3% and the Z score turned out to be 0.52.

On to `c1cc2c(cc1CN1CCN3CCCC3C1C1CCCCC1)OCO2` (stereo not given), for which the “% Inhibition” value was -21% and the Z score turned out to be 2.64.

In the case of `Cc1nc(C(=O)NCC2C3CCc4ccccc4C32)c(=O)[nH]c1C` (stereo not given), the “% Inhibition” value is on record as -5% and the Z score turned out to be 0.71.

Turning to `Cc1ccc([C@@H]2CCCCCN2S(=O)(=O)Cc2ccccc2)s1`, the “% Inhibition” value is given as -4% and the Z score was 0.76.

As to `O=C(N[C@@H]1C[C@@H]2CC(C(=O)O)C[C@@H]21)c1ccc(-c2c[nH]cn2)cc1` (stereo not given in full), the “% Inhibition” value is recorded as -3% and the Z score came out at 0.56.

Turning to `CCNC(=O)C1CCN(C(=O)Nc2ccc(NC(=O)NC3CCCCC3)cc2)CC1`, the “% Inhibition” value is on record as -8% and the Z score was 0.96.

Take `CCS(=O)(=O)CCn1cc(NC(=O)Cc2c(C)noc2C)cn1`: the “% Inhibition” value is reported as -12% and the Z score is 1.21.

Take `O[C@H]1C[C@H]2CC[C@@H](C1)N2c1ncc(F)c(N2CCOCC2)n1`: the “% Inhibition” value is listed as -6% and the Z score is 0.55.

On to `N#Cc1c(CN2CCn3ccnc3C2)cn2ccccc12`, for which the “% Inhibition” value is given as 7% and the Z score is on record as -1.41.

Turning to `Cc1cnc(C(=O)N2CC[C@H](OCc3ccccc3)C2)cn1`, the “% Inhibition” value is -8% and the Z score was determined as 0.93.

With `O[C@@H](COCc1ccccc1)Cn1cnnc1`, the “% Inhibition” value is reported as -4% and the Z score came to 0.51.

As to `COc1ccccc1OCC#CCNC(=O)Nc1ccc(C)c(C)c1`, the “% Inhibition” value is given as -6% and the Z score is on record as 0.94.

On to `c1ccc(-c2noc(-c3cc(-c4ccc5ccccc5c4)n[nH]3)n2)cc1`, for which the “% Inhibition” value is -7% and the Z score worked out at 0.81.

With `Cc1ccc(-n2nc(C#N)c(N3CCOCC3)n2)cc1`, the “% Inhibition” value worked out at 10% and the Z score is given as -1.2.
